In test [1] the target is T1, recombinant human TGF-β 1 protein (Cat: CA59, Novoprotein Scientific Inc.) (human, UniProt P01137 in part).
T1 construct: Bought reagent
Nature of the test: ELISA, target coated at 1 µg/ml, HRP-anti-human Fc detection.

Test [2] deals with T2, human TGF-β 2 (Cat: CJ79, Novoprotein Scientific Inc.) (human, UniProt P61812 303-414).
T2 construct: Bought reagent; also called recombinant human TGF-β 2 protein
T2 sequence (looked up): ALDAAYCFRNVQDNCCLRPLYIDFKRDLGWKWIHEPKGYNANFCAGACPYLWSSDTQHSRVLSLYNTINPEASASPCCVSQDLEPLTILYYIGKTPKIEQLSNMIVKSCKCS
Described as above.

For test [3], the target named is T1, recombinant human TGF-β 1 protein (Cat: …). Put plainly: BLI (Octet QKe), binder captured on AHC biosensor, 1:1 fit.
Test [4] addresses T3, recombinant human PD-L1-his protein (Accession No.: NP_054862.1, 19 aa-238 aa) (human, UniProt Q9NZQ7 in part).
T3 construct: range 19-238; also called recombinant human PD-L1 extracellular domain protein; not shown: his tag
T3 sequence (Q9NZQ7 19-238 limits assumed): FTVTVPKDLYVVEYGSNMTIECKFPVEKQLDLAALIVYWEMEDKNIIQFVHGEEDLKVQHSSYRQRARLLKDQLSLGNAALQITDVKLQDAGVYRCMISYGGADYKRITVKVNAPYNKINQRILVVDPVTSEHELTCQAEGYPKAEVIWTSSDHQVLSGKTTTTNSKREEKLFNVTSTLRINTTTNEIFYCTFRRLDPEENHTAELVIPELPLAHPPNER
Nature of the test: BLI (Octet QKe), binder captured on AHC biosensor, analyte 60 nM, 1:1 fit.

For test [5], the target named is T1, recombinant human TGF-β 1 protein (Cat: …). The description is as above.

T1 sequence (P01137 279-390 limits assumed): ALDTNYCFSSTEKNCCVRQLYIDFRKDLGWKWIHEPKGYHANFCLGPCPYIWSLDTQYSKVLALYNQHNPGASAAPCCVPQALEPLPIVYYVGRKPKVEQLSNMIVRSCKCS

B1: anti-human PD-L1 nanobody/TGF-β RII fusion protein mutant hzF2-TGF-β RIIm2 (other)
chain (part 1 of 2): EVQLVESGGGLVQPGGSLRLSCAASRDSDEGASCMGWFRQAPGKEREGVAIIFNAGERTDYGDSVKGRFTISRDNAKNTLYLQMNSLRAEDTAVYYCATVWCGSWVARSWGQGTLVTVSSAS[human IgG1 Fc with changes not written out]
chain (part 2 of 2): IPPHVNKSVNNDMIVTDNNGAVKFPQLCKFCDVRFSTCDNQKSCMSNCSITSICEKPQEVCVAVWRKNDENITLETVCHDPKLPYHDFILEDAASPKCIMKEKKKPGETFFMCSCSSDECNDNIIFSEEYNTSNPD
notes: 23; It was purified on Protein A, captured by anti-human IgG Fc biosensors and detected with anti-human Fc, so it carries a human Fc; not shown: linker peptide; amino
Take B1: the results for the EC50 in test [1] and in test [2] were 0.394 nM and 18 nM, respectively. The Kd in test [3] was determined as 2.46 nM.

B2: anti-human PD-L1 antibody/TGF-β RII fusion protein H182-MUT4-TGF-β RII (other)
heavy: EVQLVQSGAEVKKPGATVKISCKVSGFNIKDIYMHWVQQAPGKGLEWMGRIDPANANTKYDPKFQDRVTITADTSTNTAYMELSSLRSEDTAVYYCASGQLGPLGFDYWGQGTTVTVSS[human IgG1 constant region not written out]GGGGSGGGGSGGGGSGGGGSGIPPHVQKSVNNDMIVTDNNGAVKFPQLCKFCDVRFSTCDNQKSCMSNCSITSICEKPQEVCVAVWRKNDENITLETVCHDPKLPYHDFILEDAASPKCIMKEKKKPGETFFMCSCSSDECNDNIIFSEEYNTSNPD
light: DIQMTQSPSSLSASVGDRVTITCRASQDISNYLNWYQQKPGKAPKLLLYYTSRLHSGVPSRFSGSGSGTDYTLTISSLQPEDFATYFCQQGAGRPYTFGGGTKVEIKRTVAAPSVFIFPPSDEQLKSGTASVVCLLNNFYPREAKVQWKVDNALQSGNSQESVTEQDSKDSTYSLSSTLTLSKADYEKHKVYACEVTHQGLSSPVTKSFNRGEC
notes: Bifunctional fusion: the antibody heavy chain is linked at its C-terminus through a linker to the TGF-β RII extracellular domain; 9; also called parent; original
For the molecule B2, the Kd in test [4] turned out to be 0.381 nM; in test [5], 1.45 nM.

B3: anti-human PD-L1 antibody/TGF-β RII fusion protein mutant H182-MUT4-TGF-β RIIm3 (other)
heavy: EVQLVQSGAEVKKPGATVKISCKVSGFNIKDIYMHWVQQAPGKGLEWMGRIDPANANTKYDPKFQDRVTITADTSTNTAYMELSSLRSEDTAVYYCASGQLGPLGFDYWGQGTTVTVSS[human IgG1 constant region not written out]GGGGSGGGGSGGGGSGGGGSGIPPHVQKSVNNTMIVTDNNGAVKFPQLCKFCDVRFSTCDNQKSCMSNCSITSICEKPQEVCVAVWRKNDENITLETVCHDPKLPYHDFILEDAASPKCIMKEKKKPGETFFMCSCSSDECNDNIIFSEEYNTSNPD
light: DIQMTQSPSSLSASVGDRVTITCRASQDISNYLNWYQQKPGKAPKLLLYYTSRLHSGVPSRFSGSGSGTDYTLTISSLQPEDFATYFCQQGAGRPYTFGGGTKVEIKRTVAAPSVFIFPPSDEQLKSGTASVVCLLNNFYPREAKVQWKVDNALQSGNSQESVTEQDSKDSTYSLSSTLTLSKADYEKHKVYACEVTHQGLSSPVTKSFNRGEC
notes: also called H182-MUT4-H-TGF-β RII m3
Turning to B3, the Kd was determined as 0.311 nM in test [4] and 1.22 nM in test [5].

B4: anti-human PD-L1 antibody/TGF-β RII fusion protein mutant H182-MUT4-TGF-β RIIm1 (other)
heavy: EVQLVQSGAEVKKPGATVKISCKVSGFNIKDIYMHWVQQAPGKGLEWMGRIDPANANTKYDPKFQDRVTITADTSTNTAYMELSSLRSEDTAVYYCASGQLGPLGFDYWGQGTTVTVSS[human IgG1 constant region not written out]GGGGSGGGGSGGGGSGGGGSGIPPHVQKSVNNDMIVTDNNTAVKFPQLCKFCDVRFSTCDNQKSCMSNCSITSICEKPQEVCVAVWRKNDENITLETVCHDPKLPYHDFILEDAASPKCIMKEKKKPGETFFMCSCSSDECNDNIIFSEEYNTSNPD
light: DIQMTQSPSSLSASVGDRVTITCRASQDISNYLNWYQQKPGKAPKLLLYYTSRLHSGVPSRFSGSGSGTDYTLTISSLQPEDFATYFCQQGAGRPYTFGGGTKVEIKRTVAAPSVFIFPPSDEQLKSGTASVVCLLNNFYPREAKVQWKVDNALQSGNSQESVTEQDSKDSTYSLSSTLTLSKADYEKHKVYACEVTHQGLSSPVTKSFNRGEC
notes: also called H182-MUT4-H-TGF-β RII m1
Regarding B4, the Kd worked out at 0.297 nM in test [4] and 1.14 nM in test [5].

B5: anti-human PD-L1 antibody/TGF-β RII fusion protein mutant H182-MUT4-TGF-β RIIm2 (other)
heavy: EVQLVQSGAEVKKPGATVKISCKVSGFNIKDIYMHWVQQAPGKGLEWMGRIDPANANTKYDPKFQDRVTITADTSTNTAYMELSSLRSEDTAVYYCASGQLGPLGFDYWGQGTTVTVSS[human IgG1 constant region not written out]GGGGSGGGGSGGGGSGGGGSGIPPHVNKSVNNDMIVTDNNGAVKFPQLCKFCDVRFSTCDNQKSCMSNCSITSICEKPQEVCVAVWRKNDENITLETVCHDPKLPYHDFILEDAASPKCIMKEKKKPGETFFMCSCSSDECNDNIIFSEEYNTSNPD
light: DIQMTQSPSSLSASVGDRVTITCRASQDISNYLNWYQQKPGKAPKLLLYYTSRLHSGVPSRFSGSGSGTDYTLTISSLQPEDFATYFCQQGAGRPYTFGGGTKVEIKRTVAAPSVFIFPPSDEQLKSGTASVVCLLNNFYPREAKVQWKVDNALQSGNSQESVTEQDSKDSTYSLSSTLTLSKADYEKHKVYACEVTHQGLSSPVTKSFNRGEC
notes: also called H182-MUT4-H-TGF-β RII m2
For B5, the Kd in test [4] was 0.305 nM; in test [5] it was 1.34 nM.

Source of the values: patent publication US20230365653A1 (MABWELL SHANGHAI BIOSCIENCE, published 2023).
